# Test results from the supplement of paper PMC8728848.
# The list shows a part of the results.
# B1: PX14343B-bfa-546-20-546 (Bacteroides fragilis) (protein)
# chain: CDLERYPLTDLSEETFWNSESNAELALTSLYRGSLTDGVEYNPSDWWSYHGMIMMEHLSDNAFDRRGENNPFFKISSGNLTADNAFIKRYWETSYKRIGYCNRFLVGIQNSSESEKKTRMIAEARFLRATQYFYLASYFKNVPLVENVLTGEEANNVTKTSQADILKWCVTEFTAAAADLPRFSAIPAGEAGRACKQAALAFLGRTCMLQKDWKSGAKAFHDIMELGDNAINANYQELFYPSTGTSNKENIFYIQYLENYLGTGLPQHALSAKDGGWSLVNPAADLYESYEFKDGTPFSYDDPRYDPSNLGKDRDPRLDYTIYYNGAIFMGTEYKMSPDYSAAKKEKLDYTSEASRTGFMMRKYFEESTPINDVQSANGLTPVIRYAEVLLGYLECLVEDNQTITQGILDETINAVRGRASVNMPPVTEVTPAKLREIVRHERRIELAMEGIRYWDIMRWGIAHEVLSQKIWGAPYPGSTQYATTTKEVDPTGNYRWYVGKRAFRNPTDYTWPIPQSEQNINPNLRD
# Assays:
# Test in all cases: glycan array binding signal (z-score within array); higher = stronger binding
# Settings in all cases: glycan notation: IUPAC condensed, linker removed
# [1] = target: Neu5Ac(a2-3)Gal(b1-4)GlcNAc(b1-6)GalNAc
# Method in brief: (§1)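 Columns mapping to the same glycan were averaged after glycan names were converted to IUPAC-condensed notation. The data come from 3228 arrays in the Consortium for Functional Glycomics database, limited to those with an available protein sequence. Binding is reported as a within-array Z-score averaged across arrays of one protein sequence and across linkers.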
# [2] = target: Neu5Ac(a2-3)Gal(b1-4)GlcNAc(b1-6)[Gal(b1-3)]GalNAc
# Method in brief: as §1
# [3] = target: Neu5Ac(a2-3)Gal(b1-4)GlcNAc(b1-6)[Neu5Ac(a2-3)Gal(b1-3)]GalNAc
# Method in brief: as §1
# [4] = target: Neu5Ac(a2-3)Gal(b1-4)GlcNAc6S
# Method in brief: as §1
# [5] = target: Neu5Ac(a2-3)Gal(b1-4)[Fuc(a1-3)]GlcNAc
# Method in brief: as §1
# [6] = target: Neu5Ac(a2-3)Gal(b1-4)[Fuc(a1-3)]GlcNAc(b1-2)Man
# Method in brief: as §1
# [7] = target: Neu5Ac(a2-3)Gal(b1-4)[Fuc(a1-3)]GlcNAc(b1-3)Gal
# Method in brief: as §1
# [8] = target: Neu5Ac(a2-3)Gal(b1-4)[Fuc(a1-3)]GlcNAc(b1-3)Gal(b1-4)GlcNAc
# Method in brief: as §1
# [9] = target: Neu5Ac(a2-3)Gal(b1-4)[Fuc(a1-3)]GlcNAc(b1-3)Gal(b1-4)[Fuc(a1-3)]GlcNAc(b1-3)Gal(b1-4)[Fuc(a1-3)]GlcNAc
# Method in brief: as §1
# [10] = target: Neu5Ac(a2-3)Gal(b1-4)[Fuc(a1-3)]GlcNAc(b1-3)GalNAc
# Method in brief: as §1
# [11] = target: Neu5Ac(a2-3)Gal(b1-4)[Fuc(a1-3)]GlcNAc(b1-6)[Gal(b1-3)]GalNAc
# Method in brief: as §1
# [12] = target: Neu5Ac(a2-3)Gal(b1-4)[Fuc(a1-3)]GlcNAc(b1-6)[Neu5Ac(a2-3)Gal(b1-3)]GalNAc
# Method in brief: as §1
# [13] = target: Neu5Ac(a2-3)Gal(b1-4)[Fuc(a1-3)]GlcNAc6S
# Method in brief: as §1
# [14] = target: Neu5Ac(a2-3)Gal6S(b1-4)GlcNAc
# Method in brief: as §1
# [15] = target: Neu5Ac(a2-3)Gal6S(b1-4)[Fuc(a1-3)]GlcNAc
# Method in brief: as §1
# Neu5Ac(a2-3)GalNAc = target: Neu5Ac(a2-3)GalNAc
# Method in brief: as §1
# [16] = target: Neu5Ac(a2-3)GalNAc(b1-4)GlcNAc
# Method in brief: as §1
# [17] = target: Neu5Ac(a2-3)[GalNAc(b1-4)]Gal(b1-4)Glc
# Method in brief: as §1
# [18] = target: Neu5Ac(a2-3)[GalNAc(b1-4)]Gal(b1-4)GlcNAc
# Method in brief: as §1
# [19] = target: Neu5Ac(a2-3)[GalNAc(b1-4)]Gal(b1-4)GlcNAc(b1-3)GalNAc
# Method in brief: as §1
# [20] = target: Neu5Ac(a2-3)[Neu5Ac(a2-6)]GalNAc
# Method in brief: as §1
# Neu5Ac(a2-6)Gal = target: Neu5Ac(a2-6)Gal
# Method in brief: as §1
# [21] = target: Neu5Ac(a2-6)Gal(b1-3)GlcNAc(b1-3)[Gal(b1-4)GlcNAc(b1-6)]Gal(b1-4)Glc
# Method in brief: as §1
# Neu5Ac(a2-6)Gal(b1-4)Glc = target: Neu5Ac(a2-6)Gal(b1-4)Glc
# Method in brief: as §1
# [22] = target: Neu5Ac(a2-6)Gal(b1-4)GlcNAc
# Method in brief: as §1
# [23] = target: Neu5Ac(a2-6)Gal(b1-4)GlcNAc(b1-2)Man
# Method in brief: as §1
# [24] = target: Neu5Ac(a2-6)Gal(b1-4)GlcNAc(b1-2)Man(a1-3)Man(b1-4)GlcNAc(b1-4)GlcNAc
# Method in brief: as §1
# [25] = target: Neu5Ac(a2-6)Gal(b1-4)GlcNAc(b1-2)Man(a1-3)[Gal(b1-4)GlcNAc(b1-2)Man(a1-6)]Man(b1-4)GlcNAc(b1-4)GlcNAc
# Method in brief: as §1
# [26] = target: Neu5Ac(a2-6)Gal(b1-4)GlcNAc(b1-2)Man(a1-3)[GlcNAc(b1-2)Man(a1-6)]Man(b1-4)GlcNAc(b1-4)GlcNAc
# Method in brief: as §1
# [27] = target: Neu5Ac(a2-6)Gal(b1-4)GlcNAc(b1-2)Man(a1-3)[GlcNAc(b1-4)][Neu5Ac(a2-6)Gal(b1-4)GlcNAc(b1-2)Man(a1-6)]Man(b1-4)GlcNAc(b1-4)GlcNAc
# Method in brief: as §1
# [28] = target: Neu5Ac(a2-6)Gal(b1-4)GlcNAc(b1-2)Man(a1-3)[Man(a1-6)]Man(b1-4)GlcNAc(b1-4)GlcNAc
# Method in brief: as §1
binder,measurement,setting,value
B1,glycan array binding signal (z-score),[1],-0.125
same,glycan array binding signal (z-score),[2],-0.124
same,glycan array binding signal (z-score),[3],-0.128
same,glycan array binding signal (z-score),[4],-0.104
same,glycan array binding signal (z-score),[5],-0.118
same,glycan array binding signal (z-score),[6],-0.137
same,glycan array binding signal (z-score),[7],-0.111
same,glycan array binding signal (z-score),[8],-0.107
same,glycan array binding signal (z-score),[9],-0.123
same,glycan array binding signal (z-score),[10],-0.105
same,glycan array binding signal (z-score),[11],-0.121
same,glycan array binding signal (z-score),[12],-0.092
same,glycan array binding signal (z-score),[13],-0.136
same,glycan array binding signal (z-score),[14],-0.135
same,glycan array binding signal (z-score),[15],-0.129
same,glycan array binding signal (z-score),Neu5Ac(a2-3)GalNAc,-0.126
same,glycan array binding signal (z-score),[16],-0.127
same,glycan array binding signal (z-score),[17],-0.132
same,glycan array binding signal (z-score),[18],-0.12
same,glycan array binding signal (z-score),[19],-0.114
same,glycan array binding signal (z-score),[20],-0.12
same,glycan array binding signal (z-score),Neu5Ac(a2-6)Gal,-0.126
same,glycan array binding signal (z-score),[21],-0.116
same,glycan array binding signal (z-score),Neu5Ac(a2-6)Gal(b1-4)Glc,-0.122
same,glycan array binding signal (z-score),[22],-0.124
same,glycan array binding signal (z-score),[23],-0.112
same,glycan array binding signal (z-score),[24],-0.095
same,glycan array binding signal (z-score),[25],-0.123
same,glycan array binding signal (z-score),[26],-0.125
same,glycan array binding signal (z-score),[27],-0.117
same,glycan array binding signal (z-score),[28],-0.13
